Measured values as given in the supplement of paper PMC4967469.
pIC50: −log10 of the molar value. Lines with a small IC50 respond at low doses; a fit beyond the top or the lowest dose is shown as a bound at that dose. AUC sums up the same curve from the lowest dose to the 256-fold higher top dose; it is 1 without any effect and falls as sensitivity rises. For part of these data: A top dose marked as inferred is not printed in the source and was worked back from the curve model. For part of these data: An entry number marks a drug with two screens in the source, which often give different values.

Tests used:
Assay in all cases: Viability of human cancer cell lines after 72 h of drug (GDSC screen)
[1] = compound: Cc1ccc(NC(=O)c2cccc(C(C)(C)C#N)c2)cc1Nc1ccc2ncn(C)c(=O)c2c1 [AZ628]; conditions: top dose 4 µM; top dose inferred
Protocol: (§1)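 Human cancer cell lines in 384-well plates, medium with 10% serum, drug for 72 h over a 256-fold dose range (nine 2-fold or five 4-fold steps up to the top dose). Adherent lines were fixed and stained with the nucleic acid dye Syto60, suspension lines read with resazurin; signal relative to control wells, capped at 0 and 100%. One two-parameter sigmoid per drug and line, fitted in a mixed model over all curves with the slope shared within a line.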

[2] = compound: Cn1cnc2c(F)c(Nc3ccc(Br)cc3Cl)c(C(=O)NOCCO)cc21 [AZD6244]; conditions: top dose 4 µM; screen: GDSC drug entry 1498; top dose inferred
Protocol: as §1

[3] = compound: N#CC(c1ccnc(NCCc2cccnc2)n1)c1nc2ccccc2s1 [AS601245]; conditions: top dose 8 µM; top dose inferred
Protocol: as §1

[4] = compound: NC(=O)C1CCCc2c1[nH]c1ccc(Cl)cc21 [EX-527]; conditions: top dose 20 µM
Protocol: as §1

[5] = compound: Nc1ccc(C(=O)Nc2cccc(-c3nc(N4CCOCC4)c4oc5ncccc5c4n3)c2)cn1 [YM201636]; conditions: top dose 5.12 µM; top dose inferred
Protocol: as §1

Cell Line | AUC [1] | pIC50 [1] | AUC [2] | pIC50 [2] | AUC [3] | pIC50 [3] | AUC [4] | pIC50 [4] | AUC [5] | pIC50 [5]
BL-41 (Burkitt lymphoma, suspension) | 0.96 | < 5.40 | 0.994 | < 5.40 | 0.774 | 5.62 | 0.99 | < 4.70 | 0.751 | 5.87
BT-474 (breast, adherent) | 0.977 | < 5.40 | 0.98 | < 5.40 | 0.874 | < 5.10 | 0.965 | < 4.70 | 0.87 | < 5.29
BV-173 (chronic myeloid leukaemia, suspension) | 0.657 | 6.19 | 0.895 | 5.41 | 0.889 | 5.14 | 0.984 | < 4.70 | 0.919 | < 5.29
Becker (glioma, adherent) | 0.925 | < 5.40 | 0.839 | 5.49 | 0.82 | 5.27 | 0.984 | < 4.70 | 0.947 | < 5.29
MSTO-211H (mesothelioma, adherent) | 0.85 | 5.58 | – | – | 0.963 | < 5.10 | 0.988 | < 4.70 | 0.991 | < 5.29
MY-M12 (leukaemia, suspension) | 0.548 | 6.46 | – | – | 0.763 | 5.49 | 0.976 | < 4.70 | 0.695 | 5.91
NB69 (neuroblastoma, adherent) | 0.462 | 6.70 | – | – | 0.878 | 5.19 | 0.98 | < 4.70 | 0.888 | 5.33
NCI-H64 (small cell lung carcinoma, suspension) | 0.996 | < 5.40 | – | – | 0.894 | 5.28 | 0.994 | < 4.70 | 0.858 | 5.59
NCI-H510A (small cell lung carcinoma, semi-adherent) | 0.967 | < 5.40 | – | – | 0.934 | < 5.10 | 0.959 | < 4.70 | 0.981 | < 5.29
NCI-H748 (small cell lung carcinoma, suspension) | 0.939 | < 5.40 | – | – | 0.981 | < 5.10 | 0.977 | < 4.70 | 0.929 | < 5.29
NCI-H1963 (small cell lung carcinoma, suspension) | 0.981 | < 5.40 | – | – | 0.929 | < 5.10 | 0.991 | < 4.70 | 0.991 | < 5.29
NCI-H2171 (small cell lung carcinoma, suspension) | 0.926 | < 5.40 | – | – | 0.95 | < 5.10 | 0.98 | < 4.70 | 0.951 | < 5.29
NCI-H2196 (small cell lung carcinoma, adherent) | 0.959 | < 5.40 | – | – | 0.88 | < 5.10 | 0.982 | < 4.70 | 0.772 | 5.68
NCI-SNU-16 (stomach, suspension) | 0.937 | < 5.40 | – | – | 0.989 | < 5.10 | 0.989 | < 4.70 | 0.984 | < 5.29
RPMI-8866 (chronic myeloid leukaemia, suspension) | 0.988 | < 5.40 | – | – | 0.892 | < 5.10 | 0.971 | < 4.70 | 0.758 | 5.78
SCC-3 (B-cell lymphoma, suspension) | 0.968 | < 5.40 | – | – | 0.921 | 5.21 | 0.992 | < 4.70 | 0.945 | 5.31
SIG-M5 (acute myeloid leukaemia, suspension) | 0.085 | 7.71 | – | – | 0.817 | 5.50 | 0.965 | < 4.70 | 0.648 | 6.13
SK-MEL-2 (melanoma, adherent) | 0.83 | 5.58 | – | – | 0.852 | 5.18 | 0.974 | < 4.70 | 0.957 | < 5.29
SU-DHL-1 (anaplastic large cell lymphoma, suspension) | 0.914 | 5.55 | – | – | 0.993 | < 5.10 | 0.995 | < 4.70 | 0.934 | 5.37
SUP-B15 (lymphoblastic leukaemia, suspension) | 0.738 | 5.94 | – | – | 0.797 | 5.44 | 0.985 | < 4.70 | 0.785 | 5.68
TALL-1 (T-cell lymphoblastic leukaemia, suspension) | 0.922 | < 5.40 | – | – | 0.949 | < 5.10 | 0.987 | < 4.70 | 0.977 | < 5.29
THP-1 (acute myeloid leukaemia, suspension) | 0.902 | < 5.40 | – | – | 0.823 | 5.39 | 0.99 | < 4.70 | 0.89 | 5.31
UACC-812 (breast, adherent) | 0.991 | < 5.40 | – | – | 0.99 | < 5.10 | 0.991 | < 4.70 | 0.954 | < 5.29
